Source: PubChem BioAssay AID485294 (National Center for Advancing Translational Sciences (NCATS), 2010)
Values joined by “and” are separate entries in the source; they are usually repeats but may differ in a detail not shown here. Equal entries are not always repeated. In all, about 370,000 compounds went through this assay and about 150 (0.041%) were called active. Inconclusive results, whose numbers are uncertain, are shown with a selection of clear calls. The call rests on the fitted dose curve; in most records, active means well fitted inhibition curve with a large enough effect; inconclusive means small, poorly fitted or top-dose-only effect; inactive means flat fitted curve, though single readings scatter. Potencies of inconclusive entries are doubtful fits and often do not repeat.

Target: Beta-lactamase (Escherichia coli (strain K12)) (UniProt P00811)
Sequence of UniProt P00811 (P00811 whole entry, looked up): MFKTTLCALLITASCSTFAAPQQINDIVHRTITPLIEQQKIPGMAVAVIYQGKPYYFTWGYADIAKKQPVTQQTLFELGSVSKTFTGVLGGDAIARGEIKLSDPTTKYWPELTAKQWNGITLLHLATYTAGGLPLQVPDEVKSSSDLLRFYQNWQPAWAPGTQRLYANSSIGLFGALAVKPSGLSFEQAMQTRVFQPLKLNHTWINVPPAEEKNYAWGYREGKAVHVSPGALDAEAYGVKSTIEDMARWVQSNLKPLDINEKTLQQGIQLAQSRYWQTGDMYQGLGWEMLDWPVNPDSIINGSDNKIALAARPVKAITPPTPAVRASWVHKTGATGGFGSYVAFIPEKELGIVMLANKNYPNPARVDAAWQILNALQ
Assay: qHTS Inhibitors of AmpC Beta-Lactamase (assay with detergent); further: nearly all actives have a fitted effect of over 25% in size;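 on activity change, negative = inhibition: 0% = no-compound wells and -100% = no-enzyme wells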
Settings: AmpC hydrolysis of nitrocefin, absorbance 480 nm, 0.01% Triton; activity change, negative = inhibition: at 114 µM (top of the series)
Summary of the method: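 20 mM phosphate pH 7.0 + 0.01% (detergent screen) or 0.0001% Triton X-100; 5.3 nM AmpC reagent; cpd preinc 15 min RT; nitrocefin (800 uM stock) to start; A480 q20 s × 4 min; Activity was normalised to no-enzyme and no-compound control wells.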
Potency means the concentration at half of the fitted maximal effect; tags describe the fitted curve by direction and shape.

Row | Compound | Potency | activity change, negative = inhibition
1 | Cc1cc(C)c(C#N)c(Nc2ccccc2C)n1 | inconclusive: 1 µM [inhibitor, full curve, poor fit] | 
2 | O=S(=O)(NCCc1csc2nc(-c3ccccc3)nn12)c1ccc(Oc2ccccc2)cc1 |  | inactive: -4.2%
3 | Cc1cccc(NC(=O)c2ccc(C)c(S(=O)(=O)N3CCCCC3)c2)n1 | inconclusive: 44.7 µM [inhibitor, partial curve, poor fit] | 
4 | CC(C)c1nnc(NC(=O)C2CCN(S(=O)(=O)c3ccc(-n4cnnn4)cc3)CC2)s1 |  | inactive: -7.94%
5 | O=C(Nc1ccc(C(=O)O)cc1)/C(=C\C=C\c1ccccc1)NC(=O)c1ccccc1Br | inconclusive: 0.708 µM [inhibitor, full curve] | 
6 | Cc1nc(N2CCOCC2)nc2c1CCC2 | inconclusive: 7.08 µM [inhibitor, full curve, poor fit] | 
7 | O=C(COC(=O)c1nc(Cl)ccc1Cl)NCCc1ccccc1 | inconclusive: 1.58 µM [inhibitor, full curve, poor fit] | 
8 | CN(c1ccc(OCC(=O)N2CCOCC2)cc1)S(=O)(=O)c1ccc(Cl)cc1 | inconclusive: 3.98 µM [inhibitor, single point] | 
9 | Cc1ccc(N2CC(C(=O)Nc3ccc4c(c3)OCCO4)CC2=O)cc1 (configuration not stated) | inconclusive: 100 µM [inhibitor, single point] | 
10 | CCC(C)C1C(C#N)=C(N)OC2=C1C(=O)CC(C)(C)C2 (configuration not stated) | inconclusive: 3.55 µM [inhibitor, full curve, poor fit] | 
11 | Cc1cccc(OCc2nnc(SCCC(=O)O)n2-c2ccccc2)c1 | inconclusive: 100 µM [inhibitor, single point] | 
12 | CCOc1ccc(C2CC(c3ccc(OC)c(OC)c3)n3nc(N)nc3N2)cc1 (configuration not stated) | inconclusive: 0.562 µM [inhibitor, full curve, poor fit] | 
13 | COc1cc(C2C(C(=O)Nc3ccccc3C)=C(C)Nc3nc(SCc4cc(C)ccc4C)nn32)ccc1O (configuration not stated) |  | inactive: 1.28%
14 | CCCn1c(SCC(=O)N2CCN(S(=O)(=O)c3ccc(Cl)cc3)CC2)n[nH]c1=O | inconclusive: 1.41 µM [inhibitor, full curve, poor fit] | 
15 | COCCN1C(=O)N[C@@H](CCc2ccccc2)C(C(C)=O)=C1C | inconclusive: 1.78 µM [inhibitor, full curve] | 
16 | O=C(O)c1ccc(Cl)c(S(=O)(=O)N2CCC(Cc3ccccc3)CC2)c1 |  | inactive: -2.31%
17 | Cc1ccccc1Nc1nc(CSc2nnc(-c3ccoc3C)n2C)cs1 |  | inactive: -11.2%
18 | COc1ccc(NS(=O)(=O)c2ccc3c(c2)[C@H]2C=CC[C@H]2[C@@H](c2ccc(C(=O)O)cc2)N3)cc1 | inactive and inconclusive: 316 nM [inhibitor, full curve, poor fit] | 
19 | OCCCCCN=c1cc(-c2ccccc2)oc2ccc(Cl)cc12 | inconclusive: 39.8 µM [inhibitor, partial curve] | 
20 | COc1cccc(OCc2cc(C(=O)N(Cc3nccn3C)C(C)C)no2)c1 |  | inactive: -17.5%
21 | N#Cc1c(N)nc2c(c1-c1cccs1)CCCC2 | inconclusive: 100 µM [inhibitor, partial curve] | 

Row | Compound | Potency | activity change, negative = inhibition
22 | CCOc1ccc(NC(=O)[C@@H](c2ccccc2)N2Cc3ccccc3C2=O)cc1 |  | inactive: 1.98%
23 | COC(=O)c1nc2n(n1)C(c1ccc(OC)c(OC)c1OC)C1=C(CCCC1=O)N2 (configuration not stated) | inconclusive: 0.708 µM [inhibitor, full curve, poor fit] | 
24 | O=C(NCc1cccs1)C1CCCN1C(=O)Nc1cccc(Cl)c1 (configuration not stated) | inconclusive: 3.55 µM [inhibitor, partial curve] | 
25 | O=C(c1nn2c(C(F)(F)F)cc(-c3cccs3)nc2c1Br)N1CCCc2ccccc21 | inconclusive: 100 µM [inhibitor, single point] | 
26 | COc1ccc(CCNC(=O)C(=O)NCC2CCCN2S(=O)(=O)c2ccc(OC)cc2)cc1 (configuration not stated) | inconclusive: 7.08 µM [inhibitor, full curve] | 
27 | Cc1ccccc1N1CCN(C2CCCN(C(=O)CCC(F)(F)F)C2)CC1 (configuration not stated) | inconclusive: 0.355 µM [inhibitor, full curve, poor fit] | 
28 | CCc1ccc(N(C(=O)C(F)(F)F)C(C(=O)NC2CCCCC2)c2ccncc2)cc1 (configuration not stated) |  | inactive: 0.166%
29 | CSc1nsc(/C=C/Nc2ccc(O)cc2C)c1C#N | inconclusive: 2.82 µM [inhibitor, full curve, poor fit] | 
30 | CC(=O)c1c(C)[nH]c(C2=NNC(=NCc3ccccc3)SC2)c1C |  | inactive: -7.76%
31 | CC1=C(C(=O)OCc2ccccc2)C(c2ccc(N3CCOCC3)cc2)NC(=O)N1 (configuration not stated) | inconclusive: 0.794 µM [inhibitor, full curve, poor fit] | 
32 | COc1cccc(N2C(=O)NC(=O)/C(=C/c3ccc([N+](=O)[O-])s3)C2=O)c1 |  | inactive: -4.1%
33 | CCc1ccccc1N(C(C)=O)c1nc(CN=C=S)cs1 | inconclusive: 10 µM [inhibitor, partial curve, poor fit] | 
34 | CSc1cccc(NC(=O)/C=C/c2ccccc2)c1 | inconclusive: 56.2 µM [inhibitor, partial curve] | 
35 | COc1ccc(CC(=O)N/N=C(/C)c2ccco2)cc1 |  | inactive: 2.01%
36 | O=C1NC(c2ccccc2)C(C(=O)c2cccs2)=C1O (configuration not stated) | inconclusive: 0.631 µM [inhibitor, full curve, poor fit] | 
37 | C/C(=N/Nc1nc(-c2ccccc2)cc(-c2ccccc2)n1)c1ccc(N)cc1 |  | inactive: 5.38%
38 | COc1ccc(NC(=O)c2cccs2)cc1 |  | inactive: -0.596%
39 | CC1(C)N=C(c2ccc(Cl)cc2)C(=O)N1 | inconclusive: 25.1 µM [inhibitor, full curve, poor fit] | 
40 | O=C(C1CCC(CNc2c(N3CCCCC3)c(=O)c2=O)CC1)N1CCc2ccccc2C1 (configuration not stated) | inconclusive: 89.1 µM [inhibitor, partial curve] | 
41 | CCC(=O)Nc1cccc(NC(=O)c2ccccc2Cl)c1 | inconclusive: 89.1 µM [inhibitor, single point] | 
42 | CN1CCN(S(=O)(=O)c2ccc(N3CCN(c4ccccc4Cl)CC3)nc2)CC1 | inconclusive: 70.8 µM [inhibitor, partial curve, poor fit] | 
